# Among all 150,000 compounds or so, about 6,500 (4.3%) were called active. The inconclusive results got no clear call from the source; some entries with a clear call stand among them for comparison. Calls follow the shape of the dose curve; as a rule, active = well fitted inhibition curve with a large enough effect (not every such curve was filed as active); inconclusive = small, poorly fitted or top-dose-only effect, or another doubt; inactive = no such curve, though single readings can be large or run the other way. Potencies of inconclusive entries are left out as doubtful fits.
# Target: 15-hydroxyprostaglandin dehydrogenase [NAD(+)] (Homo sapiens) (UniProt P15428)
# Assay: qHTS Assay for Inhibitors of HPGD (15-Hydroxyprostaglandin Dehydrogenase)
# Settings: purified HPGD, NADH fluorescence kinetic, PGE2 substrate; activity change, negative = inhibition: stronger effect = lower value
# How it was run: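 20 nM HPGD preincubated 15 min at room temperature with compound in 50 mM Tris-HCl pH 8, 0.01% Tween 20. Started with 1 mM NAD+ and 30 uM prostaglandin E2; NADH fluorescence (360/450 nm) read 5 times over 30-s intervals, last minus first.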
# % is scaled to controls: 0 for no effect and ±100 for the full control effect; potency is read from the fitted curve at half-maximal effect; tags tell the direction and shape of the fitted curve.
# Sequence of UniProt P15428 (P15428 whole entry, looked up): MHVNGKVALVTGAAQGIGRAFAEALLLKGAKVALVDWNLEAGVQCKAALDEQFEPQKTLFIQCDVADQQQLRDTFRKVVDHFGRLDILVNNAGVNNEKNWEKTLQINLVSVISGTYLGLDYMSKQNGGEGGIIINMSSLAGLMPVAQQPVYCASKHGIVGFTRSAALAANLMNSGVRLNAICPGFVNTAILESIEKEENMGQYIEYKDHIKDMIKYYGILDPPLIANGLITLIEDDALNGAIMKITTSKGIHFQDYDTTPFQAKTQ
SMILES,"activity change, negative = inhibition",Potency
COc1ccc(NS(=O)(=O)c2ccc(NS(=O)(=O)c3ccc(C)cc3)cc2)nn1,inactive: -12.2%,
CCOCCCn1c(=S)[nH]c2cc(C(=O)N3CCN(C)CC3)ccc2c1=O,,"inconclusive [inhibitor, single point]"
c1ccc(Oc2ccc(-c3ccnc4nc(N5CCN(c6ccccc6)CC5)nn34)cc2)cc1,,"inconclusive [inhibitor, partial curve]"
Cc1ccc(CNC(=O)c2ccccc2NC(=O)CSc2nnnn2C)cc1,inactive: 5.19%,
Cc1ccc(SCC(=O)NCCC2=CCCCC2)cc1,,"inconclusive [inhibitor, single point]"
CCOC(=O)c1[nH]c(COC(=O)c2ccccc2NC(=O)c2ccco2)c(C(=O)OCC)c1C,,"inconclusive [inhibitor, single point]"
CCN(Cc1ccccc1)C(=O)c1ccc(CNS(=O)(=O)c2ccc(C)cc2)cc1,,"inconclusive [inhibitor, single point]"
O=C1N=C(N2CCOCC2)S/C1=C/c1cccs1,inactive: -13.8%,
O=C(Nc1ccc(F)cc1)N(Cc1cccs1)Cc1cc2cc3c(cc2[nH]c1=O)OCO3,,"inconclusive [inhibitor, partial curve]"
COc1ccc(-c2cn3cccnc3n2)cc1F,,"inconclusive [inhibitor, partial curve]"
COc1ccc(-c2cc(C(F)(F)F)c(C#N)c(SCC(=O)Nc3ccc(C)cc3)n2)cc1,,"inconclusive [inhibitor, partial curve]"
COc1ccc(OCC(=O)NNC(=O)c2cccnc2)cc1,inactive: -15.3%,
CCC1=NC(c2ccccc2OC)N(O)C1(C)C (stereo unspecified),inactive: -13.6%,
CCc1nnc(NC(=O)CSc2nc(C3CCCCC3)nc3ccccc23)s1,inactive: 2.15%,
CC(=O)c1cc(C#N)c(SCC(=O)OC(C)(C)C)nc1C,inactive: -27.4%,
COc1cc2c(cc1OC)CN(Cc1cc(=O)n3cc(C)ccc3n1)CC2,,"inconclusive [inhibitor, single point]"
N#Cc1c(-c2ccccc2)cc(-c2ccccc2)nc1SCc1nnc(-c2ccccc2)o1,,"inconclusive [inhibitor, partial curve]"
CC(=O)Nc1cccc(NC(=O)c2cc(-c3cccnc3)nc3ccc(Br)cc23)c1,inactive: -17.8%,
Cc1ccc(-c2c(C)sc(=NC(=O)c3ccco3)n2C)cc1,,"inconclusive [inhibitor, single point]"
CCN(CC)c1c([N+](=O)[O-])ncn1C,inactive: -8.67%,
CC(/C=N/N1CCN(c2ccc(C)cc2)CC1)=C\c1ccccc1,inactive: -2.5%,
COC(=O)C(C)Sc1ncnc2c1nnn2-c1ccc(F)cc1 (stereo unspecified),,"inconclusive [inhibitor, partial curve]"
COc1cccc(C(=O)O/N=C(\N)c2ccc([N+](=O)[O-])cc2)c1OC,,"inconclusive [inhibitor, partial curve]"
O=C(COc1nc2ccccc2nc1N1CCOCC1)N1CCc2ccccc21,,"inconclusive [inhibitor, partial curve]"

SMILES,"activity change, negative = inhibition",Potency
N#CCSc1nc2c(cc1C#N)CCCC2,inactive: -14.2%,
Cc1ccc(-c2nc3ccccc3n2C)o1,,"inconclusive [inhibitor, partial curve]"
COCCCNC(=O)c1ccc(N(C)S(=O)(=O)c2ccc(OC)cc2)cc1,,active: 1.12 µM
CCN1CCN(c2ncc(C(=O)Nc3c(F)cc(F)cc3Br)c3ccccc23)CC1,,"inconclusive [inhibitor, partial curve]"
COc1cc2c3c(c1)/C(=C1/SC(=S)NC1=O)C(=O)N3C(C)(C)C=C2C,inactive: -26.1%,
CN(C)C(=O)c1ccc(-c2ccc3ncnc(NC4CCNCC4)c3c2)cc1,,"inconclusive [inhibitor, partial curve]"
Cc1[nH]n(-c2ccccc2)c(=O)c1C(C[N+](=O)[O-])c1ccc(Cl)cc1 (stereo unspecified),,active: 28.2 µM
CNS(=O)(=O)c1ccc(OC)c(-c2nnc3c4ccccc4c(C)nn23)c1,,active: 15.8 µM
COc1ccc(/C=C2\N=C(SC)NC2=O)cc1,,active: 22.4 µM
Cc1ccc(S(=O)(=O)C2C(=O)N(C)C3(C)CC2c2ccccc2O3)cc1 (stereo unspecified),inactive: -7.36%,
CCOC(=O)c1cnc2sc3c(n2c1=O)CCCC3,,"inconclusive [inhibitor, partial curve]"
CCCc1nnc(N2C(=O)c3cccc4cccc(c34)C2=O)s1,,"inconclusive [inhibitor, partial curve]"
Cc1onc(-c2ccccc2)c1C(=O)N/N=C/c1cc2c(cc1Br)OCO2,inactive: -10.5%,
Cc1cccnc1NC(=O)/C=C/c1ccc2c(c1)OCO2,,"inconclusive [inhibitor, single point]"
Cc1nc(NC(=O)c2ccc(Br)o2)sc1C,inactive: -20.8%,
Cc1[nH]c2ccc(-c3n[nH]c(=S)n3C)cc2c1C,,"inconclusive [inhibitor, single point]"
COc1ccc(-c2cc(-c3ccccc3)nc(SCC(=O)Nc3ncc(C)s3)c2C#N)cc1,,"inconclusive [inhibitor, single point]"
Cn1c(=O)n(CC(=O)O)c(=O)c2c1nc1n2CCS1,,"inconclusive [inhibitor, single point]"
COc1ccc(CNC(=O)c2cccnc2Sc2ccc(Cl)cc2)cc1,inactive: -8.09%,
COc1ccc(-c2nn(C)c(=O)c3ccccc23)cc1NC(=O)Cn1nc(-c2ccccc2)c2ccccc2c1=O,,"inconclusive [inhibitor, partial curve]"
O=C(CSc1nnc(Cc2cccs2)n1-c1ccc(Cl)cc1)NCc1ccc2c(c1)OCO2,inactive: -14.7%,
CCn1c(SCC(=O)NCc2ccco2)nnc1-c1cccs1,,active: 25.1 µM
CN(C)c1ccc(/C=N/NC(=O)c2ccc(CN3C(=O)c4cccc5cccc3c45)cc2)cc1,,"inconclusive [inhibitor, partial curve]"
CCc1c(C)nc2c(C#N)c(C)[nH]n2c1=O,,"inconclusive [inhibitor, single point]"

SMILES,"activity change, negative = inhibition",Potency
CCCNC(=O)c1ccccc1NS(=O)(=O)c1ccc2c(c1)OCCO2,,"inconclusive [inhibitor, partial curve, poor fit]"
CCCC(=O)c1ccc(N2CCCCCC2)c(F)c1,,active: 15.8 µM
CN(C(=O)NC(=O)C1=C(N2CCOCC2)/C(=C/c2ccccc2)CC1)S(C)(=O)=O,,"inconclusive [inhibitor, partial curve]"
Cc1ccccc1-c1nnc(NC(=O)c2ccc(N3C(=O)CCC3=O)cc2)s1,inactive: -16%,
CCc1nnc(NC(=O)CC(CN(C)S(=O)(=O)c2ccccc2)c2ccccc2)s1 (stereo unspecified),inactive: -5.02%,
Cc1cnc(NC(=O)COc2cccc3c2OC(C)(C)C3)s1,inactive: 2.26%,
O=C(O)c1ccccc1N[C@H](c1ccccc1)c1ccc2cccnc2c1O,,"inconclusive [inhibitor, partial curve]"
Cc1cc2c(c(N)n1)c(=O)oc1ccccc12,,"inconclusive [inhibitor, partial curve]"
CCC(C)n1c(/C=C/c2ccccc2)nc2ccccc21 (stereo unspecified),,"inconclusive [inhibitor, partial curve]"
O=C(/C=C/c1ccc(Cl)cc1)NCc1ccco1,inactive: -20.8%,
Cc1c(/C=N/NC(=O)c2ccccc2O)c2ccccn2c1C(=O)c1ccc(F)cc1,,active: 28.2 µM
CCOc1ccc(NC(=O)CN2CCN(C3c4ccccc4-c4ccccc43)CC2)cc1,inactive: -17.2%,
CCOC(=O)c1nnn(CC(=O)N2N=C(c3cc(C)ccc3C)CC2c2ccc(OC)cc2)c1C(=O)OCC (stereo unspecified),inconclusive: -31% [inhibitor],
O=C(CSc1nnc2scc(-c3ccccc3)n12)Nc1nsc(-c2ccccc2)n1,,"inconclusive [inhibitor, partial curve, poor fit]"
Cc1ccc(N2CC(C)Cn3c2nc2c3c(=O)n(CC(=O)OCc3ccccc3)c(=O)n2C)cc1C (stereo unspecified),,"inconclusive [inhibitor, single point]"
Cn1cccc1CC(=O)NNC(=S)Nc1ccccc1Cl,,active: 11.2 µM
COCC(=O)NCCNc1nc2ccc(C)cc2cc1C,,"inconclusive [inhibitor, single point]"
Cc1ccc2c(CC(=O)NCc3cccs3)coc2c1,,"inconclusive [inhibitor, partial curve, poor fit]"
Cc1nn(-c2ccc(C(=O)O)cc2)c(C)c1Oc1ccccc1O,,active: 14.1 µM
COc1ccc(/C=C/C(=O)c2ccc(Cl)s2)cc1O,,"inconclusive [inhibitor, partial curve]"
COc1ccc2nc(NC(=O)c3cc(S(=O)(=O)N4CCOCC4)ccc3C)sc2c1,,"inconclusive [inhibitor, single point]"
Cc1ccc(Oc2cc(NC(=O)CCCn3nc([N+](=O)[O-])c(Cl)c3C)cc([N+](=O)[O-])c2)cc1,inactive: -11.1%,
COc1ccc(C(=O)N2CCC3(CC2)CN(c2cccc(-c4ccccc4)c2)C3)cc1,,"inconclusive [inhibitor, single point]"

# — PubChem BioAssay AID894 (National Center for Advancing Translational Sciences (NCATS), 2007)
